Publication PMC7347845
These are yes or no findings as the source states them, for the method shown. In cells and extracts the contact can be indirect. Some results given as binding are weak or reduced against the parent protein; the word gives no strength. For part of these data: Tags and fused reporters may be left off the sequences shown.

Protein sequences, listed by entry. Tags and fused reporters are not part of them. Lines headed by an entry give the natural chain unless they say otherwise; changes in a name come on top.
UniProt Q9UJA3: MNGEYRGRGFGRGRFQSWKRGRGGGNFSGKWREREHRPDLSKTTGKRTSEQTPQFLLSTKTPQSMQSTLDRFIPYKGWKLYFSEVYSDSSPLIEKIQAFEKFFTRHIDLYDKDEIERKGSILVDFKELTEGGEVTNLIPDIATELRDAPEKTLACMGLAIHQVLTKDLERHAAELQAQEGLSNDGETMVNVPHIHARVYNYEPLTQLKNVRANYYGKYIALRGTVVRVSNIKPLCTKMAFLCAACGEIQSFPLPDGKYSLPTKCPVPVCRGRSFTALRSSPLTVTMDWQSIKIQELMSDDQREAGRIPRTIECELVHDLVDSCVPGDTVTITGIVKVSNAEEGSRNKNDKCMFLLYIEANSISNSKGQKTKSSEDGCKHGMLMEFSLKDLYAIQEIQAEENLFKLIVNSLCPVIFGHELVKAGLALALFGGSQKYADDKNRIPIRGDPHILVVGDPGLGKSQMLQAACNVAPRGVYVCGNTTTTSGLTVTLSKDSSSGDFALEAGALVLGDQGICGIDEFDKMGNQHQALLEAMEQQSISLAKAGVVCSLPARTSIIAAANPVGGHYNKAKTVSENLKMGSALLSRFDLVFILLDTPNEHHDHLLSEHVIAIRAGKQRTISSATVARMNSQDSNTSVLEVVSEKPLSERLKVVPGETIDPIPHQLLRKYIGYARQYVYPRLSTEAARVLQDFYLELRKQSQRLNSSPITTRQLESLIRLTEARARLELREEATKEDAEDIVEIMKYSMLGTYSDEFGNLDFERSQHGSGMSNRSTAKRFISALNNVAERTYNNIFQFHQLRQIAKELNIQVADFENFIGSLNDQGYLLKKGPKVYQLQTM
UniProt Q9NXL9: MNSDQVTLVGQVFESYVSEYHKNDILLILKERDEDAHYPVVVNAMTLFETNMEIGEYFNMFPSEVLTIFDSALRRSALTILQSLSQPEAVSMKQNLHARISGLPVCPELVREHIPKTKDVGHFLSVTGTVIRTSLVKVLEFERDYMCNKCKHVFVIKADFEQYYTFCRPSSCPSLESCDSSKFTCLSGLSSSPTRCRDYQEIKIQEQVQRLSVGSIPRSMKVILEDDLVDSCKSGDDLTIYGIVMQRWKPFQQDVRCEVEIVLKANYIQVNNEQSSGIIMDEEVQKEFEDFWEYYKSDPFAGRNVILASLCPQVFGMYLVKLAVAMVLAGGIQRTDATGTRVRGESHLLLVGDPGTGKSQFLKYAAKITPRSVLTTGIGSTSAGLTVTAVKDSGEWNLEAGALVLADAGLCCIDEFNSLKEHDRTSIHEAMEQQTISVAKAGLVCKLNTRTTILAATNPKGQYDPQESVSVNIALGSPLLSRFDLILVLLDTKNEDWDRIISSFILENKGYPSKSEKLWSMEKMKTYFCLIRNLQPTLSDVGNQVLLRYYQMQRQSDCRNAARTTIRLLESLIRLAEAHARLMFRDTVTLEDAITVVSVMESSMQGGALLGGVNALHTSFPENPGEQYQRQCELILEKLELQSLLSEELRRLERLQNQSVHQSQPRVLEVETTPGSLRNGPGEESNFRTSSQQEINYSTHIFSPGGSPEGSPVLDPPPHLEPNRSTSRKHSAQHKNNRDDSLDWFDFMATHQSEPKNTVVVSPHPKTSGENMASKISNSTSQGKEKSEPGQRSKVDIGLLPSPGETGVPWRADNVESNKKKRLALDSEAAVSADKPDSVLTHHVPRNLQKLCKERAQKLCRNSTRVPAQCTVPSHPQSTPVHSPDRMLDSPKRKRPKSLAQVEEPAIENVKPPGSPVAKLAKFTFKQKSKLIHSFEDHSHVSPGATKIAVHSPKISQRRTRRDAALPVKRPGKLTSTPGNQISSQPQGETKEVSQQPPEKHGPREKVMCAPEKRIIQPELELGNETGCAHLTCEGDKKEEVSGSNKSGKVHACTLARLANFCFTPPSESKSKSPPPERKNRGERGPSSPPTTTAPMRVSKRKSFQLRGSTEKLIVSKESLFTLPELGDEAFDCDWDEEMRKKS

Legend:
[1] = biological target: T1, endogenous HORMAD1 (MDAH2774 cells) (human (endogenous in MDAH2774)) (UniProt Q86X24); assay: co-IP; endogenous HORMAD1 and MCM8–MCM9 complex in MDAH2774 cells with or without stably expressed HA-MCM9 HIM
T1 sequence: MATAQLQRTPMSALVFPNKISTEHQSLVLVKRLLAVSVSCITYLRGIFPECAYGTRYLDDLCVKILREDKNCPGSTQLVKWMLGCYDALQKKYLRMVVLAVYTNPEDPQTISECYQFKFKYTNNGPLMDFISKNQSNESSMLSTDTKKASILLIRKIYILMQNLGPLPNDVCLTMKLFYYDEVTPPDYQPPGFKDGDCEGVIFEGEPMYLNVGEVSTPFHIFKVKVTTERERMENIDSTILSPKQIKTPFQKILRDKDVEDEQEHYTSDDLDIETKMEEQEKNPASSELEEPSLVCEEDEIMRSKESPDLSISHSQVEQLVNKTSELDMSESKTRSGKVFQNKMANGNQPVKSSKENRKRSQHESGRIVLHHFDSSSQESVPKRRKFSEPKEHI

[2] = biological target: T1, endogenous HORMAD1 (MDAH2774 cells) (human (endogenous in MDAH2774)); assay: co-IP; reciprocal co-IP of endogenous proteins with indicated antibodies in WT and HORMAD1 KO MDAH2774 cells; whole cell lysate and nuclear extract
[3] = biological target: T1, endogenous HORMAD1 (MDAH2774 cells) (human (endogenous in MDAH2774)); assay: condition: only in MDAH2774 cells stably expressing the competitor HA-MCM9 HIM; co-IP; endogenous HORMAD1 and MCM8–MCM9 complex in MDAH2774 cells with or without stably expressed HA-MCM9 HIM
[4] = biological target: T2, S-Flag-streptavidin binding protein (SFB)-tagged HORMAD1 (human (cDNA from MDAH2774 cells)) (UniProt Q86X24); assay: co-IP; SFB-tagged HORMAD1 (WT or deletion mutant) and HA-tagged MCM8, MCM9 or MCM9 HIM in 293T cells; lysis in NETN300, streptavidin-conjugated beads or antibodies with protein A sepharose 2 h at 4 °C, washes in NETN100, western blotting
T2 sequence: T1 sequence

[5] = biological target: T3, SFB-tagged HORMAD1ΔC (Δ237–394 amino acids) (human (cDNA from MDAH2774 cells)) (UniProt Q86X24); assay: as above
T3 sequence: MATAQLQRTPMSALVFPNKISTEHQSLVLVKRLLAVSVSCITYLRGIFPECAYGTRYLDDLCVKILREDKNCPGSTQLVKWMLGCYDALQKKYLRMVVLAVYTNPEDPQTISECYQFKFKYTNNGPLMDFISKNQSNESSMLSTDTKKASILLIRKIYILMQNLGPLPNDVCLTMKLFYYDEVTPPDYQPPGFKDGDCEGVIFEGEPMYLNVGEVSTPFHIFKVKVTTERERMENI

Row | Substance | binding [1] | binding [2] | binding [3] | binding [4] | binding [5]
1 | endogenous MCM8 (MDAH2774 cells) (from UniProt Q9UJA3 1-840) | binds | binds | no binding | – | –
2 | HA-tagged MCM9 (from UniProt Q9NXL9 1-1143) | – | – | – | binds | binds
3 | endogenous MCM9 (MDAH2774 cells) (from UniProt Q9NXL9 1-1143) | binds | binds | no binding | – | –
4 | MCM9 HIM (HORMAD1-interacting motif, amino acids 703–766), in 293T cells (from UniProt Q9NXL9 703-766) (domain or fragment) | – | – | – | binds | –
5 | HA-tagged MCM8 (from UniProt Q9UJA3 1-840) | – | – | – | binds | binds
6 | HA-MCM9 HIM stably expressed in MDAH2774 cells (from UniProt Q9NXL9 703-766) (domain or fragment) | binds | – | – | – | –
